The densities may have been worked out from excess volumes.
Assay: xn = mol fraction of the nth substance listed
Settings: 100 kPa

CCCC[n+]1ccn(C)c1.N#C[N-]C#N + CC1COC(=O)O1
mass density [kg/m3]
Settings | x1 = 0.0503 | x1 = 0.101 | x1 = 0.2003 | x1 = 0.2996 | x1 = 0.5007 | x1 = 0.5994 | x1 = 0.7946 | x1 = 0.8989
293.15 K | – | 1179.1 | 1157.5 | – | – | 1097.7 | 1078.5 | 1069.9
298.15 K | 1186.6 | – | 1153.2 | – | 1105.7 | 1094.2 | 1074.9 | 1066.5
303.15 K | 1181.5 | 1169.6 | 1148.8 | 1130.9 | 1102 | 1090.5 | – | –
308.15 K | – | 1164.9 | 1144.4 | – | 1098.3 | 1087 | – | 1060.1
313.15 K | – | 1160.1 | 1140.1 | 1122.8 | 1094.7 | – | 1065.1 | –

— a compilation of properties of binary mixtures (doi:10.1016/j.molliq.2018.07.079)
